In paper PMC4336329 (PLoS ONE, 2015):
The campaign covered roughly 310,000 compounds. About 2,200 (0.71%) showed an effect of 50% or more. The effect is printed as a negative number. The list shows a part of the results.

Biological target: human ether-à-go-go-related gene (hERG) potassium channel (human, UniProt Q12809)
Experiment: primary screen, population patch clamp on CHO cells stably expressing hERG

Chain of human ether-à-go-go-related gene (hERG) potassium channel (Q12809 whole entry, looked up): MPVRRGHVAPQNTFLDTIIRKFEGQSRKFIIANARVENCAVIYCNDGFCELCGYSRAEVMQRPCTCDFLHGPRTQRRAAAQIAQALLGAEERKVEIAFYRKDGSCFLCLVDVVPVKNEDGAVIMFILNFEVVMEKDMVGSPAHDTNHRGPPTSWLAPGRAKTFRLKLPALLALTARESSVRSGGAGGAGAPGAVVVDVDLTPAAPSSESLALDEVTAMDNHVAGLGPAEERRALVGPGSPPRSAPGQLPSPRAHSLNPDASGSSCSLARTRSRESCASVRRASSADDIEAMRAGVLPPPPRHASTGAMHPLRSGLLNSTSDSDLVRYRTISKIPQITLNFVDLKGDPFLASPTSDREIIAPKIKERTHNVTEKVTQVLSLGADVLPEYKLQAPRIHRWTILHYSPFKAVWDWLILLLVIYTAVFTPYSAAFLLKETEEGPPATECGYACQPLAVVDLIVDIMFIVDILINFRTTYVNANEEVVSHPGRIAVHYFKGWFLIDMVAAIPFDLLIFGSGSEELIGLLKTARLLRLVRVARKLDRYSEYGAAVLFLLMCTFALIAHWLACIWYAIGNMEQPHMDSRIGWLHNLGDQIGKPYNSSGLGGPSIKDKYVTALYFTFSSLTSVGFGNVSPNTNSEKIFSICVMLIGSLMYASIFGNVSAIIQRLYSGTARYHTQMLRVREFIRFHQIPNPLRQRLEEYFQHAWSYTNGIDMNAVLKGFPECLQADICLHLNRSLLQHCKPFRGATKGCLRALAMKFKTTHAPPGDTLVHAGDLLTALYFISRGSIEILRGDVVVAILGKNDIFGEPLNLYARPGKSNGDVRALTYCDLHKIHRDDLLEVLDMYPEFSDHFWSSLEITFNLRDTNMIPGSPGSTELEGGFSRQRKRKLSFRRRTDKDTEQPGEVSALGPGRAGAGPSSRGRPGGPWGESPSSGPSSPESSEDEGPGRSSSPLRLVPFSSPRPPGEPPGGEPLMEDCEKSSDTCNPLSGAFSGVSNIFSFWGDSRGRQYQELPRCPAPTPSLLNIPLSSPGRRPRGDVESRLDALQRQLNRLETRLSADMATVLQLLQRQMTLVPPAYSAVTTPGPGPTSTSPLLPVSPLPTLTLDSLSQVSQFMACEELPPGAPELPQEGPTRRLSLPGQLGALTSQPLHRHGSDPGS

Row | Structure (SMILES) | hERG current change (%, negative = inhibition) at 1uM
1 | Cc1cccc(C(=O)Nc2sc3c(c2C(=O)O)CCCC3)c1 | 21.5%
2 | Nc1n[nH]c(C(F)(F)F)c1-c1ccccc1 | 2.1%
3 | CN(Cc1cnn(-c2ccc(F)cc2)c1)Cc1nc(Cc2ccccc2)no1 | -7.04%
4 | Cc1ccc(C(=O)CSc2ccc(-c3ccncc3)nn2)cc1 | 4.8%
5 | CCCn1cc(CN2CCC(N3CCC(C(=O)N4CCOCC4)CC3)CC2)c(C)n1 | 13.4%
6 | CCN1CCN(c2nc3c(c(=O)[nH]2)CCC3)CC1 | 13.2%
7 | COC(=O)C1=C(c2ccc(F)cc2OCc2ccccc2)C[C@@H]2CC[C@H]1N2C(=O)NCCOc1ccc(OC)cc1 | 14.3%
8 | O=C(Nc1ccc(-c2nc3ccccc3[nH]2)cc1)C1CCCO1 (stereo not shown) | 11.7%
9 | CC(c1n[nH]c(=S)n1-c1ccccc1)N1CCCCC1 (stereo not shown) | 17.8%
10 | COc1ccc(NC(=O)CO/N=C2/CCCc3nonc32)c(OC)c1 | 8.29%
11 | Cc1ccccc1N1CCN(C2CCCN(C(=O)c3cc(C(C)C)[nH]n3)C2)CC1 (stereo not shown) | -41.4%
12 | COCCCNCCCOc1ccc(C(C)(C)c2ccccc2)cc1.O=C(O)C(=O)O | 4.73%
13 | C=C1CC2C(=O)N(Cc3ccccc3)C(C(=O)OCC)(C(=O)OCC)C1N2C(=O)OC(C)(C)C (stereo not shown) | 7.83%
14 | Cc1ccc(NC(=O)CN(c2ccccc2F)S(C)(=O)=O)cc1 | 7.29%
15 | CC1CCCCC1NCC(=O)Nc1ccccc1-c1ccccc1.O=C(O)C(=O)O (stereo not shown) | 12.3%
16 | COc1ccc(/C=C(/NC(=O)c2ccccc2OC)C(=O)Nc2ccc(C(=O)O)cc2)cc1 | 11.6%
17 | Cc1cc(C)c(N)c(C(=O)O)c1 | 14.5%
18 | O=C(NCCCN1CCOCC1)c1ccc2c(c1)N(Cc1cccc(Cl)c1)C(=O)c1ccccc1S2=O (stereo not shown) | -18.1%
19 | CC(=O)OCC1OC(n2ccc3ccccc32)C(OC(C)=O)C(OC(C)=O)C1OC(C)=O (stereo not shown) | 8.79%
20 | CCc1nc(SCC(=O)N2c3ccccc3CC2C)c2c(C)c(C)sc2n1 (stereo not shown) | 12.1%
21 | CCC(C)NC(=O)Nc1ccccc1F (stereo not shown) | -3.08%
22 | COc1cc(OC)c(NS(=O)(=O)c2cn(C)cn2)cc1Cl | 12.3%
23 | O=C(COC(=O)c1cc(Br)ccc1O)NC1CCCCCC1 | 1.56%
24 | CSc1ccc(S(=O)(=O)NC(C)c2ccccc2)cc1 (stereo not shown) | 14.3%
25 | NC(=O)c1c(NC(=O)c2cnccn2)sc2c1CCCC2 | 18.1%
